# Measurements from PubChem BioAssay AID902 (National Center for Advancing Translational Sciences (NCATS), 2007).
# Values joined by “and” are separate entries in the source; they are usually repeats but may differ in a detail not shown here. Equal values may be shown once. About 1,900 (1.5%) of roughly 130,000 compounds were called active. Inconclusive results, whose numbers are uncertain, are shown with a selection of clear calls. Calls follow the shape of the dose curve; as a rule, active = well fitted cell-killing curve with a large enough effect; inconclusive = small, poorly fitted or top-dose-only effect; inactive = no such curve, though single readings can be large or run the other way. Potencies of inconclusive entries are doubtful fits and often do not repeat.
# Assay: qHTS Screen for Compounds that Selectively Target Cancer Cells with p53 Mutations: Cytotoxicity of p53ts Cells at the Nonpermissive Temperature; also: nearly all actives have a fitted effect of over 55% in size
# Settings: H1299-p53A138V viability at 39C, ATP luminescence, 24 h; activity change, negative = cell killing: at 46.1 µM (top of the series)
# % is scaled to controls: 0 for no effect and ±100 for the full control effect; potency is read from the fitted curve at half-maximal effect; tags tell the direction and shape of the fitted curve.
SMILES,Potency,"activity change, negative = cell killing"
Cc1sc2nc(SCC(=O)N3CCOCC3)[nH]c(=O)c2c1C,inactive,–
COC(=O)c1ccc(NC(=O)c2ccco2)cc1,"inconclusive: 15.8 µM [cytotoxic, partial curve]",–
Cc1cccc(Nc2cc(C)nc3nc(Cc4ccc(Cl)cc4)nn23)c1,inactive,–
CCCOc1ccccc1C(=O)Nc1ccc(-c2nc3ccc(C)cc3s2)cc1,"inconclusive: 20 µM [cytotoxic, partial curve]",–
O=C(Cn1cnc2ccccc2c1=O)NCC(=O)N1CCN(c2ccccn2)CC1,inactive,–
CN(Cc1ccccc1)S(=O)(=O)c1ccc(F)c(C(=O)Nc2cc(Cl)cc(Cl)c2)c1,"inconclusive: 20 µM [cytotoxic, partial curve, poor fit]",–
CC(C)CO/N=C1/C[C@@H](O)[C@@H](O)[C@@H]2[C@@H]3C(=O)N(C(C)(C)C)C(=O)[C@H]3CC[C@H]12,–,inactive: 13.2% [at 9.22 µM]
CC[C@H](C)[C@H](NC(=O)OCC1c2ccccc2-c2ccccc21)C(=O)O,"inconclusive: 31.6 µM [cytotoxic, partial curve]",–
O=c1oc(-c2cccs2)nc2sc3c(c12)CCCCC3,active: 10 µM,–
CC(C)=CC(=O)Nc1ccccc1C(N)=O,inactive,–
CCCCS(=O)(=O)c1oc(-c2ccc(F)cc2)nc1S(=O)(=O)c1ccccc1,active: 2 µM,–
Fc1ccc(-c2cc(C(F)(F)F)nc(NCc3ccccc3)n2)cc1,"inconclusive: 15.8 µM [cytotoxic, single point]",–
CC(=O)c1ccc(N2CCN(C(=O)c3cc4ccc5cccnc5c4[nH]3)CC2)cc1,"inconclusive: 12.6 µM [cytotoxic, partial curve]",–
CCn1c(=O)n(-c2cccc(Cl)c2)c(=O)c2sc3ccccc3c21,inactive,–
Cc1ccc(C)c(S(=O)(=O)NCCc2csc(-c3ccc(Cl)cc3)n2)c1,"inconclusive: 15.8 µM [cytotoxic, partial curve]",–
Cc1sc2c(c1C)c(=O)n(CCc1ccccc1)c(=O)n2Cc1ccc(F)cc1,inactive,–
O=S(=O)(NCc1nc2cccnc2n1Cc1ccc(F)cc1)c1ccc(Cl)s1,"inconclusive: 15.8 µM [cytotoxic, partial curve]",–
Oc1c(C(Nc2nc3ccccc3s2)c2ccco2)ccc2cccnc12 (stereo not given),"inconclusive: 3.16 µM [cytotoxic, full curve]",–
COc1ccc(Cn2ccc3nc(C)c(C(=O)N4CCN(c5ccccc5F)CC4)cc3c2=O)cc1,"inconclusive: 5.01 µM [cytotoxic, partial curve, poor fit]",–
Cc1ccc(CCNC(=O)c2ccc(CS(=O)(=O)Cc3cccc(C)c3)o2)cc1,"inconclusive: 6.31 µM [cytotoxic, partial curve]",–
COC(=O)c1ccc(Oc2nc3c(c(=O)n(C)c(=O)n3C)n2C(C)C)cc1,inactive,–
Cc1ccc2oc(-c3cccc(NC(=O)C4CCCO4)c3)nc2c1 (stereo not given),"inconclusive: 10 µM [cytotoxic, single point]",–
CCC12CN3CC(C)(CN(C1)C3c1c[nH]c3ccc(OC)cc13)C2=O (stereo not given),inactive,–
COc1ccc(-c2coc3cc(O)ccc3c2=O)cc1,"inconclusive: 3.98 µM [cytotoxic, partial curve] and inconclusive: 15.8 µM [cytotoxic, partial curve]",–

SMILES,Potency,"activity change, negative = cell killing"
CCN(CC)CCn1c(-c2ccccc2)csc1=Nc1ccccc1,"inconclusive: 12.6 µM [cytotoxic, partial curve]",–
Nc1nonc1C(=O)NCCNCc1cccc(Cl)c1Cl,inactive,–
COc1ccc(NC(=O)Cn2c(=O)n(Cc3ccccc3Cl)c(=O)c3cc(OC)c(OC)cc32)cc1OC,"inconclusive: 3.98 µM [cytotoxic, full curve]",–
Cc1cccc2cc3c(N)c(C(=O)N4CCOCC4)sc3nc12,"inconclusive: 12.6 µM [cytotoxic, single point]",–
O=C(COc1ccccc1[N+](=O)[O-])N1CCC(c2nc3ccccc3o2)CC1,inactive,–
Cc1ccc(NC(=O)c2c(C)oc3ccc(O)c(CN4CCCCCC4)c23)cc1,"inconclusive: 31.6 µM [cytotoxic, single point]",–
Cc1cccc(NS(=O)(=O)c2cc(C(=O)OCC(=O)Nc3cc(C)on3)ccc2C)c1,"inconclusive: 12.6 µM [cytotoxic, partial curve]",–
CS(=O)(=O)Nc1cccc(-c2nc(Nc3ccc(F)cc3)c3ccccc3n2)c1,"inconclusive: 31.6 µM [cytotoxic, single point]",–
CCOC(=O)c1ccc(NC(=O)Cn2ncc3c(C)n(Cc4ccccc4F)c(C)c3c2=O)cc1,"inconclusive: 7.94 µM [cytotoxic, partial curve, poor fit]",–
CCCCN(C)CC(O)Cn1cc(/C=C/C(=O)c2ccc(C)cc2)c2ccccc21 (stereo not given),active: 15.8 µM,–
Cc1cccc(Cn2c(N(C)Cc3ccccc3)nc3c2c(=O)[nH]c(=O)n3C)c1,active: 5.01 µM,–
CCc1ccc2oc(-c3ccc(N)cc3)nc2c1,active: 10 µM,–
Cc1ccc(CNC(=O)C(OC(=O)c2ccco2)C(C)C)cc1 (stereo not given),inactive,–
NC(=O)c1ccccc1N/C=C/C(=O)c1cccs1,"inconclusive: 12.6 µM [cytotoxic, partial curve]",–
O=C(CSc1nc2ccccc2[nH]1)Nc1ccc2c(c1)OCCO2,"inconclusive: 3.16 µM [cytotoxic, partial curve]",–
O=C(c1ccc(Br)s1)N(Cc1cccnc1)c1nc2ccc(F)cc2s1,"inconclusive: 10 µM [cytotoxic, partial curve, poor fit]",–
CCNC(=O)C1CCN(Cc2cc3ccccc3n2Cc2ccc(C)cc2)CC1,inactive,–
CCOc1ccc2nc(NC(=O)c3ccccc3)sc2c1,"inconclusive: 3.98 µM [cytotoxic, partial curve]",–
Cc1ccc(C(=O)Nc2ccc(Br)cc2)cc1S(=O)(=O)NCc1ccccc1,"inconclusive: 20 µM [cytotoxic, single point]",–
CC[C@@]1([N+](=O)[O-])C[C@H]2C=C[C@@H]1C2,–,inactive: 8.97% [at 9.22 µM]
CCOc1ccc(NC(=O)CC2C(=O)N(c3ccccc3)C(=O)N2Cc2cccc(OC)c2)cc1 (stereo not given),"inconclusive: 1.58 µM [cytotoxic, partial curve]",–
COc1ccc(-c2nc3ccccc3s2)cc1NC(=O)COc1cccc(C)c1,active: 10 µM,–
CCOc1ccc(NC(=O)C(=O)NCCc2ccccc2)cc1,inactive,–
c1csc(-c2nnc(Cc3cccc4ccccc34)o2)c1,inactive,–

SMILES,Potency,"activity change, negative = cell killing"
Cc1ccc(CN2C(=O)c3ccccc3Sc3ccc(C(=O)NC4CCCC4)cc32)cc1,"inconclusive: 0.005 µM [cytotoxic, full curve, poor fit]",–
O=C(CN1C(=O)CC(c2ccco2)Sc2ccccc21)Nc1ccc(Br)cc1 (stereo not given),"inconclusive: 10 µM [cytotoxic, partial curve]",–
CCCSc1nnc2c(n1)OC(c1ccc(OCC(=O)O)cc1)Nc1ccccc1-2 (stereo not given),"inconclusive: 31.6 µM [cytotoxic, single point]",–
CCN1CCN(Cc2ccc(OCc3ccccc3)cc2)CC1,"inconclusive: 20 µM [cytotoxic, single point]",–
CN1CCN(C(c2cccnc2)c2ccc3cccnc3c2O)CC1 (stereo not given),active: 12.6 µM,–
COC(=O)C1C(=O)c2c([nH]c(C(=O)OCCSC)c2C)CC1C (stereo not given),"inconclusive: 10 µM [cytotoxic, partial curve]",–
COc1ccc(NC(=O)C(C)Sc2cc(-c3ccccc3)nc(C)n2)cc1Cl (stereo not given),inactive,–
O=C(Nc1ccccc1)c1cccc(N2C(=O)CCC2=O)c1,inactive,–
COc1ccc2[nH]cc(CCNc3nc(-c4c(C)noc4C)nc4ccccc34)c2c1,"inconclusive: 15.8 µM [cytotoxic, single point]",–
NC(=O)c1c(NC(=O)c2cccs2)sc2c1CCCCCC2,"inconclusive: 12.6 µM [cytotoxic, partial curve]",–
O=C(OCC(=O)N1CCN(C(=O)c2ccco2)CC1)c1cc(-c2ccc(F)cc2)nc2ccccc12,"inconclusive: 15.8 µM [cytotoxic, single point]",–
COc1ccccc1C(=O)Nc1ccccn1,active: 10 µM,–
CCc1cccc(NC(=O)c2oc3ccc4c(c3c2C)C(=O)CC(C)(C)O4)c1,active: 6.31 µM,–
CCOC(=O)N1CCC(=C2c3ccc(Cl)cc3CCc3cccnc32)CC1,"inconclusive: 25.1 µM [cytotoxic, single point]",–
COc1ccc(CCNC(=O)c2nc(SCc3ccc(C)cc3)ncc2Cl)cc1OC,"inconclusive: 12.6 µM [cytotoxic, partial curve]",–
Cc1ccccc1C(=O)OCc1cc(=O)n2c(C)csc2n1,"inconclusive: 0.01 µM [cytotoxic, full curve, poor fit]",–
C=CCN=c1scc(-c2ccccc2)n1/N=C/c1ccccn1,"inconclusive: 12.6 µM [cytotoxic, single point]",–
CCc1ccc(-n2c(SCc3ccccc3C)nc3[nH]ncc3c2=O)cc1,active: 25.1 µM,–
COC(=O)c1ccc(Cn2c(SCc3ccccc3)nc3ccncc32)cc1,"inconclusive: 12.6 µM [cytotoxic, partial curve]",–
CCCN(C(=O)COc1cc(=O)n(CC)c2ccccc12)c1ccc(C(C)C)cc1,"inconclusive: 31.6 µM [cytotoxic, single point]",–
O=S(=O)(NC1CCCC1)c1ccc(Br)s1,inactive,–
CCOc1ccc(-c2nn[nH]n2)cc1,"inconclusive: 12.6 µM [cytotoxic, single point]",–
